Test results from the antibiotic and cytotoxicity screens of Wong et al. (2023).
The other results are listed elsewhere or left out.

Test system: HSkMC (human skeletal muscle cells)
Experiment: cytotoxicity call (relative viability < 0.9)
Details: 10 µM

Compound | cytotoxicity call
Cc1noc(C)c1S(=O)(=O)N(C)C[C@@H]1OCCCC[C@@H](C)Oc2ccc(NC(=O)Nc3ccc(F)cc3)cc2C(=O)N([C@@H](C)CO)C[C@@H]1C | inactive
C[C@H](CO)N1C[C@H](C)[C@H](CN(C)Cc2ccc(Oc3ccccc3)cc2)Oc2ccc(NS(=O)(=O)c3cccs3)cc2C1=O | inactive
Cc1ccc(S(=O)(=O)Nc2ccc3c(c2)C(=O)N([C@H](C)CO)C[C@H](C)[C@@H](CN(C)C(=O)Nc2c(C)noc2C)OCCCC[C@H](C)O3)cc1 | inactive
O=C1NC[C@@H](c2ccccc2)OC(=O)[C@@H](Cc2ccc(F)cc2)CC/C=C/C[C@@H]1CC(=O)N(CCO)Cc1ccccc1 | inactive
CC(=O)NCCc1ccc(O)c(-c2c(O)c(O)c3c(c2O)C(=O)c2c(cc(O)c(C(=O)O)c2C(=O)O)C3=O)c1 | inactive
C[C@H](CO)N1C[C@H](C)[C@H](CN(C)S(=O)(=O)c2cn(C)cn2)Oc2ccc(NC(=O)Cc3cn(C)c4ccccc34)cc2C1=O | inactive
C[C@@H]1CN([C@@H](C)CO)C(=O)c2cc(N(C)C)ccc2O[C@@H](C)CCCCO[C@@H]1CN(C)S(C)(=O)=O | inactive
COc1ccccc1C#Cc1cnc2c(c1)C(=O)N([C@H](C)CO)C[C@@H](C)[C@@H](CN(C)C(=O)CC1CC1)O2 | inactive
C[C@@H]1CN([C@H](C)CO)C(=O)c2cc(NC(=O)Nc3ccc4c(c3)OCO4)ccc2O[C@H]1CN(C)Cc1ccc(Cl)c(Cl)c1 | inactive
C[C@H]1CN([C@@H](C)CO)S(=O)(=O)c2ccc(-c3ccccc3F)cc2O[C@@H]1CN(C)S(C)(=O)=O | inactive

Test system: HepG2
Experiment: cytotoxicity call (relative viability < 0.9)
Details: 10 µM

Compound | cytotoxicity call
C[C@@H]1CN([C@H](C)CO)C(=O)Cc2cc(NS(=O)(=O)c3cn(C)cn3)ccc2O[C@@H]1CN(C)S(=O)(=O)c1cccs1 | inactive
COc1ccccc1C#Cc1ccc2c(c1)O[C@H](CN(C)Cc1cncnc1)[C@@H](C)CN([C@@H](C)CO)S2(=O)=O | inactive
Cl.Clc1ccc2c(c1)CCc1cccnc1C2=C1CCNCC1 | active
C[C@@H]1CN([C@H](C)CO)C(=O)c2cc(C#CCN(C)C)cnc2O[C@H]1CN(C)Cc1cccc(C(=O)O)c1 | inactive
C[C@H](CO)N1C[C@H](C)[C@@H](CN(C)S(=O)(=O)c2ccc(Cl)cc2)OCCCC[C@H](C)Oc2ccc(NC(=O)C3CCCCC3)cc2C1=O | inactive
CC(C)NC(=O)Nc1ccc2c(c1)C(=O)N([C@@H](C)CO)C[C@H](C)[C@@H](CN(C)CC1CCCCC1)OCCCC[C@H](C)O2 | inactive
C[C@H]1CN([C@@H](C)CO)C(=O)c2cc(N(C)C)ccc2O[C@H]1CN(C)S(C)(=O)=O | inactive
C=CC[C@H](CC(=O)NCCO)C(=O)N[C@@H](COC(=O)[C@H](CC=C)CC(=O)OC(C)(C)C)Cc1ccccc1 | inactive
CC1OC(OC2C(O)CC(OC3C(O)CC(OC4CCC5(C)C(CCC6C5CCC5(C)C(C7=CC(=O)OC7)CCC65O)C4)OC3C)OC2C)CC(O)C1O (stereo not given) | active
CN1CCN(C(=O)C[C@H]2CC[C@H]3[C@H](COc4ccc(NC(=O)c5cscn5)cc4C(=O)N3C)O2)CC1 | inactive
C[C@@H]1CN([C@H](C)CO)S(=O)(=O)c2ccc(C#C[C@@H](C)O)cc2O[C@@H]1CN(C)C(=O)c1ccncc1 | inactive
C[C@H]1CN([C@@H](C)CO)C(=O)c2cc(NC(=O)Nc3ccc(F)cc3)ccc2O[C@H]1CN(C)S(=O)(=O)c1cn(C)cn1 | inactive
C[C@@H]1CN([C@H](C)CO)C(=O)c2cccc(NC(=O)Nc3ccc(F)cc3)c2O[C@H]1CN(C)S(C)(=O)=O | inactive
O=C(C[C@@H]1CC[C@H]2[C@@H](COC[C@@H](O)CN2S(=O)(=O)c2ccccc2F)O1)NCc1ccccc1Cl | inactive
COc1ccc(S(=O)(=O)N(C)C[C@@H]2Oc3ccc(NS(=O)(=O)c4ccc(C)cc4)cc3CC(=O)N([C@H](C)CO)C[C@@H]2C)cc1 | inactive
COc1ccc(NC(=O)Nc2ccc3c(c2)C(=O)N([C@@H](C)CO)C[C@@H](C)[C@@H](CN(C)S(=O)(=O)c2ccc(Cl)cc2)OCCCC[C@@H](C)O3)cc1 | inactive
O=C(N[C@H]1CC[C@H](CC(=O)N2CCOCC2)O[C@H]1CO)c1ccccn1 | inactive
CN1C(=O)c2cc(NC(=O)c3cnccn3)ccc2OC[C@@H]2O[C@H](CC(=O)N[C@H]3CCN(Cc4ccccc4)C3)CC[C@H]21 | inactive
COc1ccc(NC(=O)N(C)C[C@@H]2OCCCC[C@@H](C)Oc3ccc(NS(=O)(=O)c4cccs4)cc3C(=O)N([C@H](C)CO)C[C@@H]2C)cc1 | inactive
C[C@H]1CN([C@@H](C)CO)C(=O)c2cc(-c3ccncc3)cnc2O[C@@H]1CN(C)C(=O)Nc1ccc2c(c1)OCO2 | inactive

Compound | cytotoxicity call
N#Cc1ccc(O)cn1 | inactive
COc1ccc(S(=O)(=O)N(C)C[C@@H]2OCCCC[C@@H](C)Oc3ccc(NS(=O)(=O)c4ccc(Cl)cc4)cc3C(=O)N([C@H](C)CO)C[C@@H]2C)cc1 | inactive
O=C(C[C@@H]1CC[C@H]2[C@@H](COC[C@H](O)CN2C(=O)c2cccnc2)O1)NCc1ccc(-c2ccccc2)cc1 | inactive
C[C@H](CO)N1C[C@H](C)[C@@H](CN(C)S(=O)(=O)c2cccc(C#N)c2)OCc2cnnn2CCCC1=O | inactive
C[C@@H]1CCCCO[C@@H](CN(C)C)[C@@H](C)CN([C@H](C)CO)C(=O)c2cc(NC(=O)Nc3cccc4ccccc34)ccc2O1 | inactive
C[C@H](CO)N1C[C@H](C)[C@H](CN(C)S(=O)(=O)c2ccc(Cl)cc2)OCCCC[C@H](C)Oc2ccc(NC(=O)CCC(F)(F)F)cc2C1=O | inactive
C[C@@H]1CN([C@H](C)CO)C(=O)c2cc(C#CC3(O)CCCC3)cnc2O[C@@H]1CN(C)C(=O)C1CCOCC1 | inactive
COc1cc2ccnc(CCCN)c2cc1OC | inactive
C[N+](C)(C)CCCCNC(=O)[C@@H]1C[C@@H]2C(=O)N[C@@H](CCCC[N+](C)(C)C)C(=O)N2[C@@H]1c1cccc(OCCO)c1 | inactive
C[C@H](CO)N1C[C@H](C)[C@@H](CN(C)C(=O)Nc2cccc3ccccc23)Oc2ccc(NS(=O)(=O)c3cccs3)cc2C1=O | inactive
Cc1noc(C)c1S(=O)(=O)N(C)C[C@@H]1OCCCC[C@@H](C)Oc2ccc(NC(=O)Nc3ccc(F)cc3)cc2C(=O)N([C@@H](C)CO)C[C@@H]1C | inactive
C[C@H](CO)N1C[C@H](C)[C@H](CN(C)Cc2ccc(Oc3ccccc3)cc2)Oc2ccc(NS(=O)(=O)c3cccs3)cc2C1=O | inactive
Cc1ccc(S(=O)(=O)Nc2ccc3c(c2)C(=O)N([C@H](C)CO)C[C@H](C)[C@@H](CN(C)C(=O)Nc2c(C)noc2C)OCCCC[C@H](C)O3)cc1 | inactive
O=C1NC[C@@H](c2ccccc2)OC(=O)[C@@H](Cc2ccc(F)cc2)CC/C=C/C[C@@H]1CC(=O)N(CCO)Cc1ccccc1 | inactive
CC(=O)NCCc1ccc(O)c(-c2c(O)c(O)c3c(c2O)C(=O)c2c(cc(O)c(C(=O)O)c2C(=O)O)C3=O)c1 | inactive
C[C@H](CO)N1C[C@H](C)[C@H](CN(C)S(=O)(=O)c2cn(C)cn2)Oc2ccc(NC(=O)Cc3cn(C)c4ccccc34)cc2C1=O | inactive
C[C@@H]1CN([C@@H](C)CO)C(=O)c2cc(N(C)C)ccc2O[C@@H](C)CCCCO[C@@H]1CN(C)S(C)(=O)=O | inactive
COc1ccccc1C#Cc1cnc2c(c1)C(=O)N([C@H](C)CO)C[C@@H](C)[C@@H](CN(C)C(=O)CC1CC1)O2 | inactive
C[C@@H]1CN([C@H](C)CO)C(=O)c2cc(NC(=O)Nc3ccc4c(c3)OCO4)ccc2O[C@H]1CN(C)Cc1ccc(Cl)c(Cl)c1 | inactive
C[C@H]1CN([C@@H](C)CO)S(=O)(=O)c2ccc(-c3ccccc3F)cc2O[C@@H]1CN(C)S(C)(=O)=O | inactive
